Test results published in article PMC4336329 (PLoS ONE, 2015).
Out of some 310,000 compounds screened, about 2,200 (0.71%) showed an effect of 50% or more. The effect is printed as a negative number. This is one part of the list.

target: human ether-à-go-go-related gene (hERG) potassium channel (human, UniProt Q12809); experiment: primary screen, population patch clamp on CHO cells stably expressing hERG
Sequence (Q12809 whole entry, looked up): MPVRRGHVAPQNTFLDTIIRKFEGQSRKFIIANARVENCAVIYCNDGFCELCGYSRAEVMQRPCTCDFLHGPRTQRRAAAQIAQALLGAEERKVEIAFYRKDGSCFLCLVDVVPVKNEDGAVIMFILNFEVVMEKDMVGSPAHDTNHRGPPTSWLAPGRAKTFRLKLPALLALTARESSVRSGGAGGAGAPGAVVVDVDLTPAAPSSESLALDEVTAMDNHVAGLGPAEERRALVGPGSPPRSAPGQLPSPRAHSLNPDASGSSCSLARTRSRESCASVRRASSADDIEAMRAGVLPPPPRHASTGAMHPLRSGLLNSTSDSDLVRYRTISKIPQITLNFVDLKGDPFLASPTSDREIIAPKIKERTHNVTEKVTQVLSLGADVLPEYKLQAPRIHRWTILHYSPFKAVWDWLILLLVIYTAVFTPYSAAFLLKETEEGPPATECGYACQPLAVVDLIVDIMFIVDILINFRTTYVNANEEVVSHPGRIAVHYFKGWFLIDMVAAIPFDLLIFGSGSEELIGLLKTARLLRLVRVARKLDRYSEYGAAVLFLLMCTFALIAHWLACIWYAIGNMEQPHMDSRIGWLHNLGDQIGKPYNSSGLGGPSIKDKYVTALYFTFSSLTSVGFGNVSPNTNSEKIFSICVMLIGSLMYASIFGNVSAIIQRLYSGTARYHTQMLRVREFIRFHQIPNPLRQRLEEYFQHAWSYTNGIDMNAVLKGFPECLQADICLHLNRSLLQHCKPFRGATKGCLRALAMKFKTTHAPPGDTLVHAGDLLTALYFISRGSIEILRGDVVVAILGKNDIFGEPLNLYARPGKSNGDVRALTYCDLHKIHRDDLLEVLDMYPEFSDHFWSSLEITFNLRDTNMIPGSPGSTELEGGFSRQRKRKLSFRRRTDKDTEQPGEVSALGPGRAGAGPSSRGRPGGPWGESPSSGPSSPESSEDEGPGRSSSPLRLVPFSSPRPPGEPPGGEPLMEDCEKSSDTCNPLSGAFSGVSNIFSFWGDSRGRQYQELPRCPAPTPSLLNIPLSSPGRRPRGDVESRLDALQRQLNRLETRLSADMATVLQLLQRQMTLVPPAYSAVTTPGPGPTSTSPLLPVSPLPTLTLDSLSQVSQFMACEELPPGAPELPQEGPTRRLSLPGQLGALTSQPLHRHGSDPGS

Row | SMILES | hERG current change (%, negative = inhibition) at 1uM [%]
1 | Cc1ccc(S(=O)(=O)N2CCN(C(=O)Cc3ccccc3)CC2)cc1 | -5.66
2 | CC(=O)C1=C(O)C(=O)N(Cc2ccccc2)C1c1ccccc1F (stereo not drawn) | 14.5
3 | CCOc1ccc(/C=N/Nc2cc(N3CCOCC3)nc(C)n2)c(O)c1 | 11.3
4 | NC(=O)c1ccsc1NC(=O)c1coc2ccccc2c1=O | 14
5 | O=C(N/N=C/c1ccc(F)cc1)c1ccc(OCc2ccccc2)cc1 | 7.62
6 | FCCCOc1ccc(-c2nccc(-c3ccc(Br)cc3)n2)cc1 | 16.1
7 | CCOCC(=O)Nc1ccc2c(c1)N(S(=O)(=O)c1cccs1)CCC2 | 0.604
8 | CCCCCOC(=O)c1ccc(NC(=O)c2ccco2)cc1 | 7.89
9 | Cc1ccc(NC(=O)c2ccc(S(=O)(=O)NCC3CCCO3)cc2)cc1C (stereo not drawn) | 10.4
10 | O=C(Nc1nncs1)c1ccc2c(c1)OCO2 | 1.25
11 | COc1ccc(C(=O)NCCCNC(=O)c2ccccn2)cc1Br | 5.86
12 | COc1ccc(-n2nnnc2SCC(=O)Nc2nc3c(s2)CCCC3)cc1 | 11.4
13 | CC12C(=O)N(Cc3ccco3)C(=O)C1C1c3ccccc3C2c2ccccc21 (stereo not drawn) | 3.75
14 | CCCCN(C(=O)c1cccc(S(=O)(=O)N2CCCC2)c1)c1c(N)n(CCC)c(=O)[nH]c1=O | 12.7
15 | CC(C)Cc1ccc(C(C)C(=O)Nc2nccs2)cc1 (stereo not drawn) | 11.9
16 | CC(=O)N1CCN(S(=O)(=O)c2cccc(C(=O)Nc3ccccc3N3CCCC3)c2)CC1 | 16.3
17 | Cc1ccc(S(=O)(=O)N2CCN(C(=O)c3ccccc3Cc3ccccc3)CC2)c(C)c1 | 12.5
18 | O=C(COC(=O)c1c2c(nc3ccccc13)/C(=C\c1cccs1)CCC2)Nc1ccccc1Cl | 8.16
19 | O=C(c1nn(-c2ccccc2)c(=O)c2ccccc12)N1CCN(c2ncccn2)CC1 | 11.8
20 | CCC(=O)Nc1nc2ccccc2n1Cc1ccccc1Cl | 13.5
21 | COc1ccccc1NC(=O)CNC(=O)Cn1cnc2sc(C)c(C)c2c1=O | 4.61
22 | Cc1ccc(NC(=O)CN(C)C(=O)c2cc3ccccc3o2)cc1 | 9.37

Row | SMILES | hERG current change (%, negative = inhibition) at 1uM [%]
23 | CCc1nnc(N2C(=O)c3ccc(Oc4ccc([N+](=O)[O-])cc4)cc3C2=O)s1 | 10.8
24 | CC1Nc2ccccc2C(=O)N1NS(C)(=O)=O (stereo not drawn) | 14.3
25 | Cc1cc2c(cc1S(=O)(=O)CCC(=O)NCc1ccccc1)OCC(=O)N2 | 10.2
26 | O=C(CN1CCC(O)(c2ccccc2F)CC1)NCCc1c[nH]c2ccccc12 | 9.77
27 | Cc1nc(CS(=O)c2ccc(Cl)cc2)cc(NCc2ccc(Cl)cc2Cl)n1 (stereo not drawn) | 15.6
28 | COC(=O)c1cccc(NS(C)(=O)=O)c1C | 5.4
29 | CC1CN(C(=O)c2ccc(NS(=O)(=O)c3ccc(F)c(F)c3)cc2)CC(C)O1 (stereo not drawn) | -3.74
30 | Cc1ccc(Cl)cc1NC(=O)CN1CCN(C(=O)C2CCCO2)CC1 (stereo not drawn) | -6.83
31 | O=C(NNC1=NS(=O)(=O)c2ccccc21)c1cccc([N+](=O)[O-])c1 | 10.7
32 | Cc1oc(-c2cccs2)[n+]([O-])c1C.Cl | 4.52
33 | Cn1nc(C(=O)N2CCN(c3ccccc3F)CC2)c2c1-c1ccccc1S(=O)(=O)C2 | 9.32
34 | CC(=O)Nc1ccccc1C(=O)C(=O)Nc1ccc(C(=O)NCC2CCCO2)cc1 (stereo not drawn) | 21.4
35 | O=C(/C=C\c1ccc2c(c1)OCO2)Nc1c2c(nn1-c1ccc(Cl)cc1)CSC2 | 16.5
36 | Cc1ccc(CC2(O)CC(C)N(C)CC2C)c(C)c1 (stereo not drawn) | 10.9
37 | CC(C)(C)c1ccc(C(=O)NCC(=O)OCC(=O)NC(=O)NC2CCCC2)cc1 | -1.2
38 | COc1ccc(NC(=O)c2ccc(NC(=O)CN(C)CC(=O)Nc3c(C)cccc3C)cc2)cc1 | 10.2
39 | CCOC(=O)c1sc2nc(N3CCOCC3)c3c(c2c1N)CCN(Cc1ccccc1)C3 | -0.326
40 | C=CCNC(=O)c1cnn(-c2ccccc2)c1-c1ccccc1 | -0.501
41 | CC1=C(C(=O)NC(C)c2ccc3c(c2)OCCO3)C2(CCC(C)CC2)OC1=O (stereo not drawn) | 12.4
42 | CCOc1ccc(NC(=O)Nc2ccc3nccnc3c2)cc1 | 9.38
43 | CCn1cc(Br)c(C(=O)NCc2ccco2)n1 | 12.3
44 | O=C(NC(=O)N1CCCc2ccccc21)c1ccccc1 | 2.21

Row | SMILES | hERG current change (%, negative = inhibition) at 1uM [%]
45 | CC1Cc2ccccc2N1C(=O)CSc1nnnn1C (stereo not drawn) | 3.45
46 | CCOC(=O)C1=C(c2ccccc2)N2CCS(=O)(=O)N=C2S1 | -4.61
47 | COc1cccc(C2/C(=C(/O)c3ccc4c(c3)CC(C)O4)C(=O)C(=O)N2CC2CCCO2)c1 (stereo not drawn) | 9.11
48 | CCN=C1SC(C(=O)Nc2cc(Cl)cc(Cl)c2)CC(=O)N1CC (stereo not drawn) | 16.8
49 | COc1ccc(-n2nnc3c(SCC(=O)NCC4CCCO4)ncnc32)cc1 (stereo not drawn) | 8.3
50 | O=C(Nc1nnc(SCC(=O)N2CCCCC2)s1)C1CCCCC1 | 13.8
51 | CC(=O)N(C)c1ccc(NC(=O)c2ccccc2C(=O)O)cc1 | 3.72
52 | COc1ccc(-c2csc(N)n2)cc1F | 25.8
53 | CC(C)(C)N1C(=O)c2ccc(C(=O)NCc3ccco3)cc2C1=O | 4.71
54 | Nc1nc(NCC2CCCO2)nc(Nc2ccc(F)cc2)c1[N+](=O)[O-] (stereo not drawn) | 4.45
55 | CC#CC[N+](C)(C)CCCCCCCCCCCC.[Br-] | -6.29
56 | COC(=O)c1sccc1NC(=O)c1cc(-c2ccc(C)cc2C)nc2ccccc12 | 6.32
57 | O=c1[nH]n(-c2cccc3cccnc23)c(=O)c2ccccc12 | -7.05
58 | Cc1sc2ncn(CC(=O)Nc3c(F)cccc3F)c(=O)c2c1S(=O)(=O)N1CCC(C)CC1 | 18
59 | CNCc1c(OCc2ccccc2F)ccc2ccccc12.Cl | 0.755
60 | O=C(c1c[nH]c(C(=O)N2CCN(Cc3ccccc3)CC2)c1)C1CCCCC1 | 7.45
61 | CCOC(=O)c1sc(-c2ccccc2)cc1NC(=O)Nc1ccc([N+](=O)[O-])cc1 | 15.9
62 | Cc1cc(NC(=O)CSc2nc(C3CCCCC3)nc3ccccc23)no1 | 14.8
63 | Cc1ccc([N+](=O)[O-])cc1NC(=S)NC(=O)c1cccs1 | 12.2
64 | Cl.N[C@@H](Cc1ccccc1)C(=O)N1CCC(C(=O)N[C@@H](CCC(=O)O)C(=O)O)CC1 | 6.51
65 | Cc1ccc(C)c(NC2=CC(=O)CC(C)(C)C2)c1C#N.Cl | 1.32
66 | O=C(Nc1ccccn1)c1sc2cc([N+](=O)[O-])ccc2c1Cl | 16.8

Row | SMILES | hERG current change (%, negative = inhibition) at 1uM [%]
67 | O=[N+]([O-])c1ccc(N/N=C/c2cccnc2)cc1 | 9.27
68 | CCN1CCN(c2ccc(NC(=O)c3ccco3)cc2)CC1 | 6.04
69 | Cc1cccn2c(=O)c3cc(C#N)c(=NC(=O)c4cccs4)n(CCCOC(C)C)c3nc12 | -26.1
70 | Cc1cccc(-c2noc(C3CCCCC3)n2)c1 | 14.5
71 | O=C(COC(=O)c1cc([N+](=O)[O-])ccc1NCc1ccccc1Cl)NCC(F)(F)F | -0.68
72 | Cc1nonc1CC(=O)NC1CC(C)(C)Cc2c1cnn2-c1ccc(F)cc1 (stereo not drawn) | 4.98
73 | O=C(Nc1ccc2c(c1)OCCO2)C1CCCN1C(=O)Nc1ccc(F)cc1 (stereo not drawn) | 13
74 | CCCCN(Cc1cccs1)S(=O)(=O)c1ccc(-c2ccc(=O)[nH]n2)s1 | 12.2
75 | COCCN(C(=O)Cn1nnc2ccccc21)C(C(=O)NC1CCCC1)c1cc(OC)ccc1OC (stereo not drawn) | -0.322
76 | Cc1c(N/N=C(\C#N)C(=O)c2ccc(Cl)cc2)c(=O)n(-c2ccccc2)n1C | 11.2
77 | COc1ccc(OC)c(NC(=O)Cn2c(=O)oc3ccccc32)c1 | 7.02
78 | CCN(CC)S(=O)(=O)c1ccc(N2CCCCC2)c(NC(=O)c2ccncc2)c1 | 6.47
79 | CC(=O)NCCn1c(SCc2ccccc2C)nc2ccccc2c1=O | 1.26
80 | CCNC(=S)N/N=C(\C)c1ccc(Cl)s1 | 19.3
81 | COc1ccc(OCc2nnc(SCC(=O)NC3CC3)n2C)cc1 | 14.3
82 | COc1ccc(CCN(C)C(=O)COc2ccc(N(C)S(=O)(=O)c3ccc(C)cc3)cc2)cc1OC | 7.35
83 | Cc1ccc(S(=O)(=O)N(C)C)cc1NC(=S)Nc1ccc2cn[nH]c2c1 | 6.7
84 | COc1ccccc1CNC(=O)CCc1nnc2ccc(NCCCN3CCCC3=O)nn12 | 12.9
85 | Cc1cc(C(=O)N/N=C/c2ccc3c(c2)OCO3)c(C)o1 | 5.47
86 | OCC1(Cc2ccccc2)CCCN(C2CCCC2)C1 (stereo not drawn) | -3.43
87 | Cc1ccc2occ(C(=O)c3ccco3)c(=O)c2c1 | 5.9
